PubChem BioAssay AID1656 (Sanford-Burnham Center for Chemical Genomics, 2009)
The other results are listed elsewhere or left out. Shown are side measurements of this screen, not its main read-out; they come without a call. The list favours compounds with an active or inconclusive main result.

Experiment: inhibitors of hepatocyte lipid droplet formation, primary screen, imaging, high-throughput imaging, BODIPY stain (AID 1656);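 also: cells counted across two imaged fields per well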
Conditions: AML12 mouse hepatocytes, oleate lipid droplets, measured here: cell count, cytotoxicity flag, at 6.5 µM
Method in brief: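 Assay system: AML12 mouse liver cells | Compound dosing: One dose, 6.5 µM compound | Read-out basis: Droplet intensity reduction, % inhibition | Measured by: Fluorescence imaging, 20x objective, two fields per well | Schedule: Overnight treatment with compound plus oleate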

Question: For `Cc1ccc(C)c(NC(=O)Cn2cc(C(=O)C3CC3)c3ccccc32)c1`, which cell count is on record?
Answer: 816 cells

Question: With `Fc1ccc(Br)cc1C1C=C(c2ccc(Br)s2)Nc2ncnn21` (stereo unspecified) as the compound, how does the cell count read?
Answer: 228 cells

Question: For `N#CC1=C(N)OC2=C(CCc3ccccc32)C1c1ccccc1` (stereo unspecified), which cell count is on record?
Answer: 305 cells

Question: With `Cc1c(Cl)cccc1N(CC(=O)NC(C)c1ccccc1)S(C)(=O)=O` (stereo unspecified) as the compound, how does the cell count read?
Answer: 774 cells

Question: With `c1ccc(NCc2ccncc2)cc1` as the compound, how does the cell count read?
Answer: 917 cells

Question: Which cell count does the source give for `O=C(N/N=C/c1cn(-c2ccccc2)nc1-c1cc2ccccc2o1)c1ccccc1Br` here?
Answer: 702 cells

Question: Which cell count does the source give for `CCOc1ccc(CCNC(=O)CCc2nc(-c3ccc(OC)cc3)no2)cc1OCC` here?
Answer: 737 cells

Question: Which cell count does the source give for `Cc1cccc(C(C(=O)NC2CCCC2)N(C(=O)c2csnn2)C2CCCC2)c1` (stereo unspecified) here?
Answer: 794 cells

Question: With `Cc1cccc(N(C(=O)c2nsc(Cl)c2Cl)C(C(=O)NC2CCCC2)c2ccc(O)cc2)c1C` (stereo unspecified) as the compound, how does the cell count read?
Answer: 293 cells

Question: For `CCOc1ccc(CN(C)C(=O)CNC(=O)Cc2cccc3ccccc23)cc1`, which cell count is on record?
Answer: 770 cells

Question: For `CSc1nc2ccccc2n1CC(=O)Nc1c(C)cccc1C`, which cell count is on record?
Answer: 709 cells

Question: With `Cc1ccc(-n2cccc2/C=C2/NC(=O)N(CC(=O)Nc3cccc(C)c3)C2=O)cc1` as the compound, how does the cell count read?
Answer: 589 cells

Question: For `O=C(CNc1cc(S(=O)(=O)N2CCCC2)ccc1OCC(F)(F)F)Nc1cccc(C(F)(F)F)c1`, which cell count is on record?
Answer: 639 cells

Question: Which cell count does the source give for `O=C(NC1CCCc2c1cnn2-c1ccccc1F)c1ccccn1` (stereo unspecified) here?
Answer: 742 cells

Question: Which cell count does the source give for `Fc1ccc(-c2cnn3c(-c4cccs4)ccnc23)cc1` here?
Answer: 700 cells

Question: Which cell count does the source give for `Cc1ccccc1N1CCN(C(=S)c2ccc(-c3ccc([N+](=O)[O-])cc3)o2)CC1` here?
Answer: 711 cells

Question: For `CCCCCCCCn1c(N2CCN(c3cccc(Cl)c3)CC2)nc2c1c(=O)[nH]c(=O)n2C`, which cell count is on record?
Answer: 794 cells

Question: With `O=C1c2ccccc2C(=O)c2c(Nc3ccc(CCO)cc3)ccc(O)c21` as the compound, how does the cell count read?
Answer: 835 cells

Question: Which cell count does the source give for `O=C(Nc1ccccc1)C1=C[C@@H](C2CCCCC2)C[C@@H](OCc2ccc(CO)cc2)O1` here?
Answer: 738 cells

Question: With `CCc1c(C#N)c(SCCC(=O)Nc2cccc(OC)c2)nc2c1C(=O)CC(C)(C)C2` as the compound, how does the cell count read?
Answer: 748 cells

Question: For `Cc1cc(NC(=O)c2cc3ccccc3o2)cc(C)c1OCC(=O)N1CCOCC1`, which cell count is on record?
Answer: 678 cells

Question: Which cell count does the source give for `O=C(OCCN1C(=O)c2cccc3c(N4CCOCC4)ccc(c23)C1=O)c1ccc(Cl)cc1Cl` here?
Answer: 242 cells

Question: With `CCOc1ccc(CCNC(=O)c2cc(C)nc3ccccc23)cc1OCC` as the compound, how does the cell count read?
Answer: 671 cells

Question: Which cell count does the source give for `CCN(CC)c1ccc(NC(=O)CN2CCN(S(=O)(=O)c3cc(Cl)ccc3OC)CC2)cc1` here?
Answer: 751 cells

Question: With `COc1ccc(C(=O)OC(C)C(=O)Nc2cc(C(F)(F)F)ccc2Cl)c(OC)c1OC` (stereo unspecified) as the compound, how does the cell count read?
Answer: 726 cells

Question: For `CCOc1ncccc1C(=O)OC(C)C(=O)Nc1ccc(CC)cc1` (stereo unspecified), which cell count is on record?
Answer: 684 cells

Question: For `CSc1ccc(NC(=O)N2CCC(C(=O)c3ccc(F)cc3)CC2)cc1`, which cell count is on record?
Answer: 739 cells

Question: Which cell count does the source give for `CCOc1ccc(CN(C)C(=O)CNC(=O)c2ccc3ccccc3c2)cc1OC` here?
Answer: 766 cells

Question: For `CCN1C(=O)/C(=C2\C=Cc3cc(C)ccc3N2CC)OC1=S`, which cell count is on record?
Answer: 723 cells

Question: For `CCOc1ccc(CCNC(=O)c2c(C)nn(-c3ccccc3)c2Cl)cc1OCC`, which cell count is on record?
Answer: 783 cells

Question: With `COc1ccc(Cl)cc1CNCCCSc1ncccn1` as the compound, how does the cell count read?
Answer: 821 cells

Question: Which cell count does the source give for `CCC1=Nc2cc(C(=O)NCc3ccco3)ccc2Sc2ccc(Cl)cc21` here?
Answer: 258 cells

Question: Which cell count does the source give for `COc1ccc(C(=O)OC(C)C(=O)NC(C)CCc2ccccc2)cc1[N+](=O)[O-]` (stereo unspecified) here?
Answer: 768 cells

Question: For `CCOc1ccc(CCNC(=O)C2CC=CCC2C(=O)OC(C)C)cc1OCC` (stereo unspecified), which cell count is on record?
Answer: 836 cells

Question: Which cell count does the source give for `Cc1[nH]c2ccccc2c1/C=N/Nc1ccccc1[N+](=O)[O-]` here?
Answer: 700 cells

Question: Which cell count does the source give for `O=C(COc1ccc(C(=O)c2ccccc2)cc1)NCc1ccc(F)cc1` here?
Answer: 197 cells

Question: With `COc1ccc(CCNC(=O)CCOc2cc(C)ccc2C)cc1OC` as the compound, how does the cell count read?
Answer: 713 cells

Question: With `COCCN1C(=O)/C(=C/c2ccc(N3CCCC3)cc2C)SC1=S` as the compound, how does the cell count read?
Answer: 687 cells

Question: Which cell count does the source give for `Cc1ccccc1Cn1nc(C)c(NC(=O)C2c3ccccc3Oc3ccccc32)c1C` here?
Answer: 656 cells

Question: For `CCN1C(=O)c2ccccc2Sc2ccc(C(=O)NCCC(C)C)cc21`, which cell count is on record?
Answer: 774 cells

Question: For `CCOc1cc2c(cc1OCC)C(c1ccccc1OC)OC(=O)C2` (stereo unspecified), which cell count is on record?
Answer: 653 cells

Question: For `CCCCN(CCCNC(=O)CN1C(=O)COc2ccccc21)c1ccccc1`, which cell count is on record?
Answer: 672 cells

Question: With `CC1CCCCN1Cc1c(O)ccc2c(=O)c(-c3ccccc3)coc12` (stereo unspecified) as the compound, how does the cell count read?
Answer: 378 cells

Question: Which cell count does the source give for `COc1ccc(N=Nc2nc(-c3ccccc3)c(-c3ccccc3)[nH]2)cc1` here?
Answer: 622 cells

Question: For `CCc1ccccc1NC(=O)c1cccc(NC(=O)/C=C/c2ccco2)c1`, which cell count is on record?
Answer: 300 cells

Question: For `CCCN1C(=O)/C(=C/c2c(N3CCNC(=O)C3CC(=O)OCC)nc3c(C)cccn3c2=O)SC1=S` (stereo unspecified), which cell count is on record?
Answer: 698 cells

Question: For `COc1cccc(CNS(=O)(=O)c2ccc(S(=O)(=O)NC3CC3)cc2)c1`, which cell count is on record?
Answer: 847 cells

Question: Which cell count does the source give for `CCCOC(=O)c1ccc(NC(=O)c2ccc(Br)o2)cc1` here?
Answer: 654 cells

Question: Which cell count does the source give for `CC1=Nc2cc(C(=O)NCc3ccco3)ccc2Sc2ccc(C)cc21` here?
Answer: 159 cells

Question: Which cell count does the source give for `CC1=C([N+](=O)[O-])C(c2cccc(Br)c2)C2=C(N1)c1ccccc1C2=O` (stereo unspecified) here?
Answer: 245 cells

Question: With `Cc1nc(NC(=O)/C=C/c2ccccc2)n[nH]1` as the compound, how does the cell count read?
Answer: 294 cells

Question: For `C#CCOc1ccc(C2C3=C(COC3=O)Nc3cc4c(cc32)OCO4)cc1OC` (stereo unspecified), which cell count is on record?
Answer: 38 cells

Question: For `CCOc1ccccc1NC(=O)CC1Nc2cc(C)c(C)cc2NC1=O` (stereo unspecified), which cell count is on record?
Answer: 715 cells

Question: For `Cc1ccc(/C=N/NC(=O)COc2ccccc2-c2ccccc2)cc1`, which cell count is on record?
Answer: 281 cells

Question: For `CC(C)(C)C1CCC(=NNC(=O)c2ccc(Br)o2)CC1` (stereo unspecified), which cell count is on record?
Answer: 190 cells

Question: For `C=CCSc1n[nH]c(-c2ccc(OCCCC)cc2)n1`, which cell count is on record?
Answer: 691 cells

Question: Which cell count does the source give for `Cc1cccc(Nc2nc(N)c([N+](=O)[O-])c(N3CCCC(C)C3)n2)c1` (stereo unspecified) here?
Answer: 638 cells

Question: Which cell count does the source give for `CCCc1cc2c(=O)c(-c3ccc4c(c3)OCCO4)c(C)oc2cc1OS(C)(=O)=O` here?
Answer: 136 cells

Question: Which cell count does the source give for `CCC(C)(C)NC(=O)C(c1ccc(OC)cc1)N(Cc1cccs1)C(=O)CCC(=O)Nc1cc(C)on1` (stereo unspecified) here?
Answer: 756 cells

Question: For `COc1ccc(C2(c3ccc(OC)cc3)NC(=O)N(CC(=O)Nc3cc(C)ccc3OC)C2=O)cc1`, which cell count is on record?
Answer: 894 cells

Question: For `CCc1cc(SC#N)cc(CC)c1NC(=O)CCl`, which cell count is on record?
Answer: 680 cells

Question: For `CCOc1ccc(CCNC(=O)CCS(=O)(=O)c2ccc(Br)cc2)cc1OCC`, which cell count is on record?
Answer: 410 cells

Question: Which cell count does the source give for `COc1cccc(N=CC=C2OC(C)(C)C(C)(C)O2)c1` here?
Answer: 678 cells

Question: With `CC(C)C(C)(C#N)NC(=O)CSc1nc2scc(-c3ccc(F)cc3)c2c(=O)n1Cc1ccccc1` (stereo unspecified) as the compound, how does the cell count read?
Answer: 608 cells

Question: For `CCOC(=O)C1C2C=CC3(CN(Cc4cccs4)C(=O)C13)O2` (stereo unspecified), which cell count is on record?
Answer: 223 cells

Question: Which cell count does the source give for `CC(=O)c1cccc(N=Nc2c(-c3ccccc3)[nH]n(-c3ccccc3)c2=O)c1` here?
Answer: 673 cells
